Source: the RNAGym collection of RNA variant scans (doi:10.1093/nar/gkz1192)
Read counts are not given, so values of variants with three or more changes are uncertain.

B1: CPEB3 Ribozyme (parent)
chain: UAACAGGGGGCCACAGCAGAAGCGUUCACGUCGCAGCCCCUGUCAGAUUCUGGUGAAUCUGCGAAUUCUGCUGUAUAUCUC

Variants of: B1
Experiment: self-cleavage, relative activity (ratio to wild type); higher = more cleavage; in vitro, sequencing
Outline: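 For each CPEB3 ribozyme variant, relative activity is its cleaved/total read fraction divided by the unmutated ribozyme's. Barcoded error-prone PCR libraries were transcribed by T7 RNA polymerase (5 hours, 37°C) and held in DNase I for 15 min before an EDTA stop, with cleavage occurring throughout. Template-switching reverse transcription and Illumina sequencing were used to read the RNAs. A 5-read minimum applied, and results are the mean of three batches.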
In the case of UAUCAGGGGGCCACGGCAGAAGCGUUCACGUCGCAGCCCCUGUCAGUCUCUGGUGAAUCUGCGAAGUCUGCUGUAUAUCUC [A3U A15G A47U U48C U66G], the self-cleavage is reported as 0.19. UAUCAGGGGGCCGCAGCAGAAGCGUUCACGUCGCAGCCCCUGCCGGAUUCUGGUGAAUCUGCGAAUUCUGCUGUAUAUCUC [A3U A13G U43C A45G] showed a self-cleavage of 0.4. Variant UAUCAGGGGGCCACGGCGGAGGCGUUCACGUCGCAGGCCCUGUCAGAUUCUGGUGAAUCUGCGAAUUCUGCUGUAUAUCUC [A3U A15G A18G A21G C37G] has a self-cleavage of 0.17. UAUCAGGGGGCCUCAGCAGAAUCGUUCACGUCGCAGCCCCUGUCAGAUUCUGGUGAAUCUGCGAAUUCUGCUAUUUACCUC [A3U A13U G22U G73A A75U U78C] showed a self-cleavage of 0.73. UAUCAGGGGGCCGCAGCAGAAGCGAUCACGUCGCGGCCCCUGUCAGAUUCUGGUGCAACUGCGAAUUCUGCUGUAUAUCUC [A3U A13G U25A A35G A56C U58A] showed a self-cleavage of 0.07. In the case of UAUCGGGGGGCCACAGCAGAAGCGUUCACGUCGCAGCCCCUGUCAGAUCCUGGUGAAUCUGCGAAUGCUGCUGUAUAUCUC [A3U A5G U49C U67G], the self-cleavage is reported as 0.6. UAUCUGGGGGCCACAGCAGAAGCGUUCACGUCGCAGCCCCAGUCAGAUUCUGGUGAAUCUGCGACUUCUGCUGUAUAUCUC [A3U A5U U41A A65C] gave a self-cleavage of 0.25. In the case of UAUCUGGGGGCCACAGCAGAAGCGUUCACGUCGCAGCCCCUGACAGAUUCUGGUGAGUCUGCGAGUUCUGCUGUAUAUCUC [A3U A5U U43A A57G A65G], the self-cleavage is reported as 0.28. In the case of UAUCGGGGGGCUACAGCAGAAGCGUUCACGCCGCAGCCCCUGACAGAUUCUGGUGAAUCUGCGAAUUCUGCUGUAUAUCUC [A3U A5G C12U U31C U43A], the self-cleavage is reported as 0.7. Variant UAUCUGGGGGCCACAGCAGGAGCGUUCACGUCGCAGCCCCUGUCAGACUCUGGUGAAUCCGCCUAUUCUGCUGUAUAUCUC [A3U A5U A20G U48C U60C G63C A64U] has a self-cleavage of 0.26. In the case of UAUCGGGGGGCCACAGCAGAAGCGUUCACGUCGCAGCCCCUGUCAGAUUCUGGUGAAUCUGCAAAUUCUGCUGUAUACCUC [A3U A5G G63A U78C], the self-cleavage is reported as 0.53. For UAUCGGGGGGCCACAGCAGAAGCGCUCGCGUCGCAGCCCCCGUCAGAUUCUGGUGAAUCUGCGAAUUCUGCUGUGUAUCUC [A3U A5G U25C A28G U41C A75G], the self-cleavage was 0.1. UAUCGAGGGGCCACAGCAGAAGCGUUCACGUCGCGGCCCUUGUCAGAUUCUGGUGUAUCUGCGAAUUCUGCUGUAUACCUC [A3U A5G G6A A35G C40U A56U U78C] gave a self-cleavage of 0.17. For UAUCAGGGGGCCGCAGCAGAAGCGUUCACGUCGCAGCCCCUGUCAGAUUCUGGUGAGUCUGCGAAUUCUGCUGUAUAUCUC [A3U A13G A57G], the self-cleavage was 0.86. With UAUCAGGGGGCCUCAGCAGAAGAGUUCACGUCGCAGCCCCUGUGAGAUCCCGGUGAAUCUGCGAAUUCUGCUGUAUAUCUC [A3U A13U C23A C44G U49C U51C] the self-cleavage was 0.16. UAUCAGGGGGCCACGGCAGAAGCGUUCACGUCGCUGCCCCUGUCAGAUUCUGGUGAAUCUGCGGAUCCUGCUGUAUAUCUC [A3U A15G A35U A64G U67C] gave a self-cleavage of 0.49. UAUCAGGGGGCCGCAGCAGAAGCGUUCGCGUCGCAGCCCCUGUCAGAUUCUGGUGAAUCUGCGAAUUCUGCUGUAUAUCUC [A3U A13G A28G] showed a self-cleavage of 0.6. With UAUCAGGGGGCCACGGCAGAAGCGUUCACGUCGCAGCCCCUGUCAGAUUCUGGUGAGUCUGCGUAUUCUGCUGUAUAUCCC [A3U A15G A57G A64U U80C] the self-cleavage was 0.17. In the case of UAUCUGGGGGCCACAGCAGAGGCGUCCGCAUCGCAGCCCCUGUCAGAUUCUGGUGAAUCUGCGAAUUCUGCUGUAUAUCUC [A3U A5U A21G U26C A28G G30A], the self-cleavage is reported as 0.42. Variant UAUCUGGGGGCCACAGCAGAAGCGCUCACCUCGCAGCCCCUGUCAGAUUCUGGUGGAUCUGCGAAUUCUGCUGUAUAUAUC [A3U A5U U25C G30C A56G C79A] has a self-cleavage of 0.03. With UAUCUGGGGGCCACAGCAGAAGCGUCCACGUCGCAGCCCCAGUCAGAUUCUGGUGAAUCCGCGAAUUCUGCUGUAUAUCUC [A3U A5U U26C U41A U60C] the self-cleavage was 0.34. In the case of UAUCAGGGGGCCCCAGCAGAAGCGUUCACGUCGCAGCCCCCGUCAGAUUCUGGUGAAUCUGCGAACUCUGCUGUAUAUCUC [A3U A13C U41C U66C], the self-cleavage is reported as 0.47. In the case of UAUCAGGGGGCCUCAGCAGAAGCAUUCACGUCGCAGCCCCUGUCAGAUUCUGGUGAAUCUGCGAAUUCAGCUGUAUAUCUC [A3U A13U G24A U69A], the self-cleavage is reported as 0.3. Work on UAUCAGGGGGCCGCAGCAGAAGCGUACACGUCGCAGCCCCUGGCAGAUUCUGGUGAAUCUGCGAAUUCUGCUGUAUAUCUC [A3U A13G U26A U43G] yielded a self-cleavage of 0.26. UAUCUGGGGGCCACAGCAGAAGCGUUCACGUCGCAGCCCCUGCCAGAUUCUGGUGGAUCUGCGAAUUCUGCUGUAUAUCUC [A3U A5U U43C A56G] showed a self-cleavage of 0.62. UAUCGGGGGCCCACAGCAGAAGCGUUCACGUCGCAGCCCCGGUCAGAUUCUGGUGAAUCUGCGAAUUCUGCUGUAUAUCUC [A3U A5G G10C U41G] gave a self-cleavage of 0.22. UAUCUGGGGGCCACAGCAGAAGCGUUCACGCCGCAGCCCCUGUCAGAUUCUGGUGAAUCUGCGAAUUCUGCUGUAUAUCUC [A3U A5U U31C] gave a self-cleavage of 1.14. In the case of UAUCAGGGGGCCGCAGCAGAAGCGUUCACGUAGCAGCCCCUGUCUGAUUCCGGCGAAUCUGCGAAUUCUGCUGUAUAUCUC [A3U A13G C32A A45U U51C U54C], the self-cleavage is reported as 0.19. UAUCAGGGGGCCACGGCAGAAGCGUUCACGUCGCAGCCCCUGUCAGGUUCUGGUGAAUCUGCGAAUUCUGCUGUAUAUCUC [A3U A15G A47G] gave a self-cleavage of 0.95. Variant UAUCAGGGGGCCGCAGCAGAAGCGUUCACGUCGCAGCCCCUGUCAGAUUCUGGUGAAUCUGCGAAUUUUGCUGUAUAUCUC [A3U A13G C68U] has a self-cleavage of 0.86. UAUCAGGGGGCCGCAGCAGAAGCGUUCACGUCGCAGCCCCUGUCGGAUUCUGGUGAGUCUGAGAGUUCUGCUGUGUAUCUC [A3U A13G A45G A57G C62A A65G A75G] gave a self-cleavage of 0.15. UAUCAGGGGGCCACGGCAGAAGCGUUCACGUGGCAGCCCCUGUCAGAUACUGGUGAAUCAGCGAAUUCUGCUGUAUAUCUC [A3U A15G C32G U49A U60A] gave a self-cleavage of 0.25. Work on UAUCAGGGGGCCGCAGGAGGAGCGUCCACGUCGCAGCCCCUGUCAGAUUCUGGUGAACCUGCGAAUUCUGCUGUAUAUCUC [A3U A13G C17G A20G U26C U58C] yielded a self-cleavage of 0.36. In the case of UAUCAGGGGGCCACGGUAGAAGCGUUCACGUCGCAGCCCCUGUCAGAUUCUGGUGAAUCCGCGAAUUCUGCUGUAUACCUC [A3U A15G C17U U60C U78C], the self-cleavage is reported as 0.23.
